{"source": "the supplement of paper PMC11369174", "about": "“Proteome-scale characterisation of motif-based interactome rewiring by disease mutations” (Molecular Systems Biology, 2024)", "test_in_all_cases": "mean normalised NGS count of phage-displayed peptide after selection on bait (% of reads); baits are purified protein domains named by gene / domain / UniProt id / residues; peptides come from disordered regions of human proteins; higher = stronger enrichment / binding", "key": {"[1]": {"target": "DMD_WW-EF__P11532_3055_3088"}, "[2]": {"target": "T1, CLTC_Clathrin-propeller__Q00610_1_364", "T1 chain": "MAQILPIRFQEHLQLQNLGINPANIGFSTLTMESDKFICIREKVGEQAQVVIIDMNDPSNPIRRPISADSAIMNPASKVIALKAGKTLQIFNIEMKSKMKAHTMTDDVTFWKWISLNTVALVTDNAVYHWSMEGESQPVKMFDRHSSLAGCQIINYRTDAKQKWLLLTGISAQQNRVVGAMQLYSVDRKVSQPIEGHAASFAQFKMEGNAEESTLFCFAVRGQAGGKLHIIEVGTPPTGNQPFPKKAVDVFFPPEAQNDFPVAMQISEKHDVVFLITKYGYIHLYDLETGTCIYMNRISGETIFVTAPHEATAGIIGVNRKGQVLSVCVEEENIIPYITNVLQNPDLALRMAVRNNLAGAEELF", "conditions": "replicate selections in which the peptide was seen: 6"}, "[3]": {"target": "T2, DOK1_PTB__Q99704_151_256", "T2 chain": "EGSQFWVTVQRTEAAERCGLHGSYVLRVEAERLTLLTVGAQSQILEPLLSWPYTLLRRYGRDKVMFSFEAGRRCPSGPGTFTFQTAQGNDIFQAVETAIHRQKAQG"}, "[4]": {"target": "MAP1LC3B_ATG8__Q9GZQ8_2_119", "conditions": "replicate selections in which the peptide was seen: 6"}, "[5]": {"target": "T3, CSK21_Pkinase__P68400_1_335", "T3 chain": "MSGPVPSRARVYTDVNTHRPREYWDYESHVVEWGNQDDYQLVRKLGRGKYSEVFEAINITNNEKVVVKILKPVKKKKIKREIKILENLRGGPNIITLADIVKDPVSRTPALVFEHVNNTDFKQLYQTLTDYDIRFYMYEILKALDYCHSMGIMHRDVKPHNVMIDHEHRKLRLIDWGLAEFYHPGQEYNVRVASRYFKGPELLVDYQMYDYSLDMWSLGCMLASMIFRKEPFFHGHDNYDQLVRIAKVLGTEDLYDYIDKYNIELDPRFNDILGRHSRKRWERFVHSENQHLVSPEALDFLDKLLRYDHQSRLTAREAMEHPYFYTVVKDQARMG"}, "[6]": {"target": "CREBBP_NCBD__Q92793_2062_2109"}, "[7]": {"target": "CREBBP_KIX__Q92793_587_673"}, "[8]": {"target": "T4, EPHA3_Pkinase__P29320_606_947", "T4 chain": "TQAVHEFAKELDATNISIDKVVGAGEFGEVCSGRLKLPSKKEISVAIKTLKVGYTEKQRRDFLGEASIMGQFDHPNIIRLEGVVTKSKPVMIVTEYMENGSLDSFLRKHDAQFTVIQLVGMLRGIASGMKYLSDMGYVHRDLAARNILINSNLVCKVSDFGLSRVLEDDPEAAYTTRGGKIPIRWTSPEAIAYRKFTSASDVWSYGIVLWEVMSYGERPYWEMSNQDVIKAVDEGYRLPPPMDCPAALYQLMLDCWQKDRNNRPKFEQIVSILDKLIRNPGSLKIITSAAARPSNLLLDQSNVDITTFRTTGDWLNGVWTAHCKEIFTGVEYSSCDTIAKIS", "conditions": "replicate selections in which the peptide was seen: 3"}, "[9]": {"target": "T5, EPHB2_Pkinase__P29323_604_898", "T5 chain": "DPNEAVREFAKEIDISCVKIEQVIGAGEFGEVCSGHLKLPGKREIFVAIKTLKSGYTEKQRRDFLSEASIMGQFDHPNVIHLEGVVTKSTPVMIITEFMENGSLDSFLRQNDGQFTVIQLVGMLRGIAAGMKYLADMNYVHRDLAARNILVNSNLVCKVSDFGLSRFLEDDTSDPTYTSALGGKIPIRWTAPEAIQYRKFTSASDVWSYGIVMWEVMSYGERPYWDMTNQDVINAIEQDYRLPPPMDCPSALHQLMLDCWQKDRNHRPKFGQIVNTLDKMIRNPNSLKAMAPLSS", "conditions": "replicate selections in which the peptide was seen: 2"}, "[10]": {"target": "MK08_Pkinase__P45983_1_363", "sequence (chain, as listed by the source)": "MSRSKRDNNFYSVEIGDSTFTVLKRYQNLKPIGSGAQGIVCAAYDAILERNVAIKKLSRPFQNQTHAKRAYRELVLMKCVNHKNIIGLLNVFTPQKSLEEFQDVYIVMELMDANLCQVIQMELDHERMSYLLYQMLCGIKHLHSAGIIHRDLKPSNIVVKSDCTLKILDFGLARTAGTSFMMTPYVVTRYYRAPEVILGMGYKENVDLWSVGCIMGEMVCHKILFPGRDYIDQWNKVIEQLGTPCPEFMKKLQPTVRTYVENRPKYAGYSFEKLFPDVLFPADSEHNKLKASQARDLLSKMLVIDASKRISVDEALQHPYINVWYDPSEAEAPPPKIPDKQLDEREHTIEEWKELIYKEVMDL", "conditions": "replicate selections in which the peptide was seen: 2"}, "[11]": {"conditions": "replicate selections in which the peptide was seen: 3"}, "[12]": {"conditions": "replicate selections in which the peptide was seen: 5"}, "[13]": {"conditions": "replicate selections in which the peptide was seen: 2"}, "[14]": {"conditions": "replicate selections in which the peptide was seen: 4"}}, "note": "This is one part of the list. Read counts after selection give these values, which scatter widely.", "data": [{"binder": "QPPPYDHLFEVALPKT", "note": "[TSC1 600-615 wt]", "values": [{"measurement": "mean normalised NGS count", "setting": "[1]; [11]", "value": 0.0353}]}, {"binder": "VATGNLLDLEETAKAP", "note": "[LDLRAP1 207-222 wt]", "values": [{"measurement": "mean normalised NGS count", "setting": "[2]", "value": 0.0203}]}, {"binder": "STTSPPSYASVTKPDK", "note": "[SCN9A 1951-1966 mut Q15858.D1959A]", "values": [{"measurement": "mean normalised NGS count", "setting": "[1]; [12]", "value": 3.1}]}, {"binder": "WTDLENSIVSVERMQD", "note": "[ABCC6 1223-1238 wt]", "values": [{"measurement": "mean normalised NGS count", "setting": "[3]; [12]", "value": 2.59}, {"measurement": "mean normalised NGS count", "setting": "[4]", "value": 3.07}]}, {"binder": "FIWVQENIDEIVLQLQ", "note": "[AKAP9 3547-3562 mut Q99996.I3558V]", "values": [{"measurement": "mean normalised NGS count", "setting": "[5]; [13]", "value": 6.5}]}, {"binder": "EGDHDLLTFGQAQMNF", "note": "[BCL11A 40-55 mut Q9H165.C48F]", "values": [{"measurement": "mean normalised NGS count", "setting": "[2]", "value": 0.0171}]}, {"binder": "MDALLGGSEIWRDTDF", "note": "[TYR 185-200 mut P14679.I198T]", "values": [{"measurement": "mean normalised NGS count", "setting": "[3]; [13]", "value": 0.0156}]}, {"binder": "LAYPPPPSYPSPKPAM", "note": "[EGR2 200-215 mut P11161.T215M]", "values": [{"measurement": "mean normalised NGS count", "setting": "[1]; [14]", "value": 18.8}]}, {"binder": "REEKLTDWQKLAALLF", "note": "[RBM10 749-764 mut P98175.C764F]", "values": [{"measurement": "mean normalised NGS count", "setting": "[6]; [13]", "value": 0.138}]}, {"binder": "WTDLENSIVSVERMQH", "note": "[ABCC6 1223-1238 mut O95255.D1238H]", "values": [{"measurement": "mean normalised NGS count", "setting": "[3]; [12]", "value": 2.34}, {"measurement": "mean normalised NGS count", "setting": "[4]", "value": 3.08}]}, {"binder": "TWLSTEADFHPLPPSY", "note": "[KNSTRN 16-31 mut Q9Y448.S24F]", "values": [{"measurement": "mean normalised NGS count", "setting": "[1]; [14]", "value": 0.0289}]}, {"binder": "VFHYFPLTEVGMVETS", "note": "[GJA8 275-290 mut P48165.S276F]", "values": [{"measurement": "mean normalised NGS count", "setting": "[5]; [13]", "value": 0.0848}]}, {"binder": "WTDIENSIVSVERMQD", "note": "[ABCC6 1223-1238 mut O95255.L1226I]", "values": [{"measurement": "mean normalised NGS count", "setting": "[3]; [11]", "value": 3.55}]}, {"binder": "MDALLGGSEIWRDIDF", "note": "[TYR 185-200 wt]", "values": [{"measurement": "mean normalised NGS count", "setting": "[3]; [12]", "value": 1.02}]}, {"binder": "PPPYLRTEFHQHQQQH", "note": "[AUTS2 516-531 mut Q8WXX7.H529Q]", "values": [{"measurement": "mean normalised NGS count", "setting": "[1]; [14]", "value": 0.0488}]}, {"binder": "LAYPPPPSYPSPKPAT", "note": "[EGR2 200-215 wt]", "values": [{"measurement": "mean normalised NGS count", "setting": "[1]; [14]", "value": 6.71}]}, {"binder": "DQRWALVMQLFQDHGF", "note": "[CIC 1468-1483 mut Q96RK0.R1471W]", "values": [{"measurement": "mean normalised NGS count", "setting": "[7]; [14]", "value": 0.509}]}, {"binder": "DDADALGSMLISWYMS", "note": "[SMN1 255-270 wt]", "values": [{"measurement": "mean normalised NGS count", "setting": "[6]; [11]", "value": 2.7}]}, {"binder": "DLWKDVDHIVGLDQMA", "note": "[MYH11 617-632 mut P35749.R624H]", "values": [{"measurement": "mean normalised NGS count", "setting": "[7]; [12]", "value": 0.117}]}, {"binder": "SELIELRETTEMLKAQ", "note": "[NAV3 1625-1640 mut Q8IVL0.I1634T]", "values": [{"measurement": "mean normalised NGS count", "setting": "[2]", "value": 0.0528}]}, {"binder": "AAWRVLEMPAPADDSS", "note": "[ZNF469 2967-2982 mut Q96JG9.G2971V]", "values": [{"measurement": "mean normalised NGS count", "setting": "[5]; [13]", "value": 0.12}, {"measurement": "mean normalised NGS count", "setting": "[8]", "value": 0.0629}]}, {"binder": "ALLGGSEIWRDTDFAH", "note": "[TYR 187-202 mut P14679.I198T]", "values": [{"measurement": "mean normalised NGS count", "setting": "[3]; [14]", "value": 0.00632}]}, {"binder": "MDALLGGYEIWRDIDF", "note": "[TYR 185-200 mut P14679.S192Y]", "values": [{"measurement": "mean normalised NGS count", "setting": "[3]; [12]", "value": 11.1}]}, {"binder": "FTWVEKDISGKTQIQS", "note": "[STAT3 621-636 wt]", "values": [{"measurement": "mean normalised NGS count", "setting": "[5]; [11]", "value": 4.55}]}, {"binder": "LPSDIMDFVLKNTPSM", "note": "[KMT2A 2845-2860 wt]", "values": [{"measurement": "mean normalised NGS count", "setting": "[7]; replicate selections in which the peptide was seen: 6", "value": 28.3}]}, {"binder": "KVLRLKEEHGIELSSP", "note": "[CHD2 1351-1366 mut O14647.P1353L]", "values": [{"measurement": "mean normalised NGS count", "setting": "[5]; [11]", "value": 0.273}]}, {"binder": "MGPWGWKLRWTVALPL", "note": "[LDLR 1-16 mut P01130.L15P]", "values": [{"measurement": "mean normalised NGS count", "setting": "[5]; [11]", "value": 0.0423}, {"measurement": "mean normalised NGS count", "setting": "[9]", "value": 0.106}]}, {"binder": "VILSMVNNRSLDLDSI", "note": "[KRT77 335-350 mut P04264.D340V]", "values": [{"measurement": "mean normalised NGS count", "setting": "[5]; [11]", "value": 0.478}, {"measurement": "mean normalised NGS count", "setting": "[10]", "value": 0.0913}]}]}
